Out of some 310,000 compounds screened, about 14,000 (4.5%) showed an effect of 50% or more. Effects have a minus sign here. The list shows a part of the results.
biological target: human ether-à-go-go-related gene (hERG) potassium channel (human, UniProt Q12809); assay: primary screen, population patch clamp on CHO cells stably expressing hERG
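Also: peak tail current of the secondary pulse compared with the same well before compound.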

Sequence of human ether-à-go-go-related gene (hERG) potassium channel (Q12809 whole entry, looked up): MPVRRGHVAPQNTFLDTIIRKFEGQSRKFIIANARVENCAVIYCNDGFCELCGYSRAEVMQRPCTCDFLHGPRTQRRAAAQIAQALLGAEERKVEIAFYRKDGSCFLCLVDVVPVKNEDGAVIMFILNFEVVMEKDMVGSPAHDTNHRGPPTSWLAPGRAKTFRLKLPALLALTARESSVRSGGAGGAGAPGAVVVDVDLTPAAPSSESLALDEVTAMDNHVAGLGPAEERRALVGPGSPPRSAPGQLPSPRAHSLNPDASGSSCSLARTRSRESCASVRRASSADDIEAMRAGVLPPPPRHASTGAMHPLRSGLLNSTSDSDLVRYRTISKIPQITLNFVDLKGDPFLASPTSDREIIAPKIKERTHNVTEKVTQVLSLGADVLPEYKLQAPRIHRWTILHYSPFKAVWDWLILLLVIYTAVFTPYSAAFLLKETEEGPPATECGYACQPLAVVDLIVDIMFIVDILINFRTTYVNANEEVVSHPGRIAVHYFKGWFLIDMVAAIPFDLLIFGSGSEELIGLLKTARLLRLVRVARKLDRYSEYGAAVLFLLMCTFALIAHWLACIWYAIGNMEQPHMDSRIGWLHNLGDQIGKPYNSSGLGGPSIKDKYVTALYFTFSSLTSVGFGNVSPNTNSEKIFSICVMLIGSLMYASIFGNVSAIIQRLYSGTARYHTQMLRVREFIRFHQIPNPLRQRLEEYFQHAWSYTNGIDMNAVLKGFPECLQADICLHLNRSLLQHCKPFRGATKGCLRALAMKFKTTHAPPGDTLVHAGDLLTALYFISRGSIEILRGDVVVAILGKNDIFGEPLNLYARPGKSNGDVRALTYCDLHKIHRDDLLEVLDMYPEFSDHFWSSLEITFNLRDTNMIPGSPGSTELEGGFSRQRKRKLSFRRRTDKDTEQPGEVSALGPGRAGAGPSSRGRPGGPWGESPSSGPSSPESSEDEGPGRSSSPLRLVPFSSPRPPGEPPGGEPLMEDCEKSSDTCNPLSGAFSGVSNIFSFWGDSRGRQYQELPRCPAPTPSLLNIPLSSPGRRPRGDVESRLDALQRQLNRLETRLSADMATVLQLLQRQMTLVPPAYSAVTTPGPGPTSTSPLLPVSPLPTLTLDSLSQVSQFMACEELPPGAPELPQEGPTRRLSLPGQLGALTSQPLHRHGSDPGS

| Structure (SMILES) | hERG current change (%, negative = inhibition) at 10uM |
| --- | --- |
| CSCCC(NC(=O)c1ccccc1)C(=O)NC1CC1 (stereo not drawn) | 18.8% |
| CCCn1c2c(c(O)c(C(=O)NCc3ccccc3)c1=O)CCCC2 | 17% |
| Cc1ccc(-c2nnc(SCC(=O)Nc3nccs3)n2N)cc1 | -10.4% |
| COc1cc(C)ccc1Oc1ncnc(N)c1[N+](=O)[O-] | 9.66% |
| CC1(C)COC2(OC1)C(=O)N(CN1CCOCC1)c1ccccc12 | 16.3% |
| O=C(Cc1ccccc1)NN1C(=O)c2ccccc2C1=O | -9.37% |
| O=C(C1CCN(S(=O)(=O)c2ccccc2)CC1)N1CCCCCC1 | -3.55% |
| COc1ccc2c(c1)c1c3n2CCN(C)C3=NCC1.Cl | -67.7% |
| Cc1cccc(NC(=O)C2C3C=CC(C4CC34)C2C(=O)O)c1 (stereo not drawn) | -12.8% |
| COC(=O)C1C(=O)C2=C(CC1C)NC(C)=C(C(=O)OC(C)C)C2c1ccc(OC)c(O)c1 (stereo not drawn) | 8.68% |
| COC(=O)c1cccc(NC(=O)Nc2ccc(Cl)cc2)c1 | 4.61% |
| CCOC(=O)N1CCC(=NNC(=O)Cn2ccc(C(F)(F)F)n2)CC1 | 15.3% |
| C#CCn1cc[n+](CC(=O)N(C)C)c1.[Br-] | 5.28% |
| COc1ccc(OC)c(-c2cc(C(=O)Nc3cc(C)n(Cc4ccc(Cl)cc4)n3)no2)c1 | -2.91% |
| CCOc1ccc(Oc2c(/C=N/NC(=O)COc3ccccc3OC)c(C)nn2-c2ccccc2)cc1 | 17.6% |
| S=c1nccc(-c2cccs2)[nH]1 | 8.78% |
| O=C(CSc1nnc2c(Cl)cc(Cl)cn12)NC1CCS(=O)(=O)C1 (stereo not drawn) | -5.28% |
| O=C(O)c1[nH]c2ccccc2c1NS(=O)(=O)Cc1ccccc1 | -2.83% |
| NS(=O)(=O)c1ccc(NC(=O)NC2CC(=O)N(c3ccc4c(c3)OCCO4)C2)cc1 (stereo not drawn) | 2.12% |
| CCOC(CC(=O)NNC(=O)c1c(-c2c(Cl)cccc2Cl)noc1C)OCC | 14.3% |
| O=P(Nc1ccccc1)(Nc1ccccc1)Oc1cccc(Cl)c1 | -5.63% |
| COC(=O)c1ccc(Nc2ncnc3c2cnn3-c2cccc(C)c2)cc1 | 9.28% |
| O=C(NCC1CCCN(Cc2ccc3nonc3c2)C1)c1cccc(C(F)(F)F)c1 (stereo not drawn) | -61.5% |

| Structure (SMILES) | hERG current change (%, negative = inhibition) at 10uM |
| --- | --- |
| N=c1c2c3c(sc2nc2n1CCC2)CCCC3 | -28.9% |
| CCO[C@@H]1OC(C(=O)N2CCN(C)CC2)=C[C@H](c2ccc(C(F)(F)F)cc2)[C@H]1CCCO | -1.51% |
| CN1CCN(S(=O)(=O)c2cccc(C(=O)NCc3ccccc3Cl)c2)CC1 | -13.8% |
| COc1ccccc1CNC(=O)CNC(=O)c1sc2ccccc2c1Cl | 4.96% |
| O=C(NCCCn1ccnc1)C(Cc1ccc([N+](=O)[O-])cc1)N1C(=O)c2ccccc2C1=O (stereo not drawn) | -62.3% |
| COc1ccccc1N(CC(=O)Nc1cc(C)on1)S(=O)(=O)c1ccc(Cl)cc1 | -10.9% |
| COc1ccc(S(=O)(=O)N2c3ccc(F)cc3CCC2C)cc1 (stereo not drawn) | -9.99% |
| COCCCNc1ccnc2c(Cl)cccc12 | -58.5% |
| CCC(C)Sc1nc2c(c(=O)[nH]c(=O)n2C)n1C (stereo not drawn) | -4.04% |
| CCC(C)Nc1nnnc2c1sc1nc3c(cc12)COC(C)(C)C3 (stereo not drawn) | -6.79% |
| CCOc1ccc(NC(=O)CN(C)C(=O)c2ccc(N3CCCCCC3)c([N+](=O)[O-])c2)cc1OCC | 3.4% |
| COc1cccc(C(=O)Oc2ccc(/C=N/NC(=O)c3ccncc3)cc2OC)c1 | 3.58% |
| CC(=O)Nc1cccc(/C(C)=N/NS(=O)(=O)c2ccccc2)c1 | 9.2% |
| CC(C)(C)CN1CCNC(=O)C1CC(=O)NCc1cccc(-n2cccn2)c1 (stereo not drawn) | 11% |
| COc1ccc(C(=O)Sc2ccc(C)cc2)cc1OC | 20.2% |
| Cc1scc(C(=O)N/N=C/c2ccc(OC(C)C)cc2)c1C | 11.6% |
| Cc1cc(C)n(C(=O)CNC(=O)C2COc3ccccc3O2)n1 (stereo not drawn) | 14.5% |
| COc1ccc(OCC(O)CN2CCN(CC(O)COc3ccc(OC)cc3)CC2)cc1 (stereo not drawn) | -47.5% |
| CN1C(=O)C(c2ccc([N+](=O)[O-])cc2[N+](=O)[O-])C(=O)N(C)C1=O | 19.8% |
| CCc1cc(=O)oc2cc(C)cc(OC(C)C(=O)NCc3ccncc3)c12 (stereo not drawn) | -56.8% |
| COc1ccc(-c2csc3ncnc(Oc4cccc5ccc(C)nc45)c23)cc1 | -6.38% |
| Cc1ccc(C(=O)NC(=S)Nc2cccc(NC(=O)c3ccccc3)c2)cc1[N+](=O)[O-] | -5.88% |
| Cc1ccc(S(=O)(=O)N2CCC(C(=O)NCC(C)(C)N3CCOCC3)CC2)c(C)c1 | -36.1% |

| Structure (SMILES) | hERG current change (%, negative = inhibition) at 10uM |
| --- | --- |
| CCOC(=O)c1cccc([P+](=O)O)c1 | 8.14% |
| Cc1ccc(N2C(=O)NC(=O)/C(=C\c3ccsc3)C2=O)cc1C | 6.33% |
| COc1ccc(NS(=O)(=O)c2cc3c4c(c2)C(C)C(=O)N4CCC3)cc1 (stereo not drawn) | 10.3% |
| Oc1cccc(/C=N/Nc2ccc(Cl)nn2)c1 | -19% |
| COc1ccc(-n2c(-c3ccc(Cl)cc3Cl)n[nH]c2=S)c(OC)c1 | 15% |
| CC(=O)NC1CC2CCCC(C1)N2CC(=O)NCc1ccc(F)cc1 (stereo not drawn) | -0.00062% |
| COc1cc(NS(=O)(=O)c2ccc(NC(=O)CSC3=NCCS3)cc2)nc(OC)n1 | 15.1% |
| CCc1c(C(=O)NNC(=O)Nc2ccc3c(c2)OCO3)csc1C | 18.2% |
| CCc1nc(SCC(=O)Nc2ccc(Br)cn2)n[nH]1 | 13.3% |
| Cc1ccc(NC(=O)CSCc2n[nH]c(=O)[nH]2)c(Br)c1 | 3.22% |
| COCc1cc(C)nc(SCC(=O)Nc2ccc3c(c2)OCCO3)c1C#N | 13.4% |
| CNC(=O)/C(C#N)=C/c1c(N2CCCCCC2)nc2ccccn2c1=O | 10.2% |
| Cc1nc2oc3ccccc3c(=O)c2c(=O)n1Cc1ccccc1 | -32.2% |
| C1=CCC(CN2CCNCC2)CC1.O=C(O)C(F)(F)F (stereo not drawn) | 9.96% |
| C[N+]1(C)CC2=Cc3ccccc3CC2C1.[I-] (stereo not drawn) | 19.5% |
| CC(C)(C)C(=O)Nc1nnc(COc2ccc(Cl)cc2)s1 | -12.8% |
| CCOc1c2ccc(C(=O)NCCCCc3ccccc3)cc2nn1CC | -14.1% |
| N#Cc1ccccc1NC(=O)c1cc(=O)c2ccccc2o1 | -12.2% |
| CCC(C)NC(=O)C1c2ccccc2C(=O)N(c2ccc(OC)cc2)C1c1ccc(OC)cc1 (stereo not drawn) | 10.2% |
| O=C(CS(=O)(=O)c1c[nH]c2ccccc12)NC1CCCCC1 | -8.19% |
| CCN(CC)C1CC(=O)N(c2ccc(Br)cc2)C1=O (stereo not drawn) | 12.6% |
| Cc1ccc(-c2ccc(/C=N/n3cnnc3)o2)cc1 | 9.79% |
| CCOc1ccccc1NC(=O)c1ccc(F)c(S(=O)(=O)N2CCC3(CC2)OCCO3)c1 | -18.6% |

| Structure (SMILES) | hERG current change (%, negative = inhibition) at 10uM |
| --- | --- |
| COc1ccc(CCNc2nc(-c3ccco3)cc(C(F)(F)F)n2)cc1OC | 5.37% |
| CCC(=O)Nc1ccc(NCc2ccc(-c3ccccc3)cc2)cc1 | 12.5% |
| CC(=O)Nc1n[nH]c(-c2ccc(C)cc2)c1C | 4.49% |
| CCCCn1c(CN(C)Cc2ccccc2)nc2c1c(=O)n(C)c(=O)n2C | -39.9% |
| COc1ccccc1C(C)NC(=O)Cc1ccc(S(=O)(=O)N2CCOCC2)s1 (stereo not drawn) | -5.65% |
| NC(=O)NOCc1ccccc1 | 4.91% |
| O=C(NCN1CCN(c2ccccn2)CC1)c1cnccn1 | 1.92% |
| Cc1ccc(SC[C@H](c2ccccc2)N2CCN(CCc3ccccc3)CCC2=O)cc1 | -74.7% |
| Cc1sc2ncnc(Sc3ccccc3C(=O)Nc3ccc(Br)cc3)c2c1C | 2.1% |
| CCSc1nc2sc3c(c2c(=O)[nH]1)CC(C)(CC)OC3 (stereo not drawn) | 19% |
| CC(=O)N1CCc2cc(S(=O)(=O)CCC(=O)Nc3cccc(F)c3)ccc21 | 7.15% |
| Cc1ccc(N2CC(C(=O)Nc3ccc(S(=O)(=O)Nc4nccs4)cc3)CC2=O)cc1C (stereo not drawn) | 2.57% |
| COc1cc(/C=C/c2cccc[n+]2C)ccc1OCC(=O)Nc1ccccc1C.[I-] | 8.13% |
| C=CCn1c(SCC(=O)NC2CCS(=O)(=O)C2)nnc1-c1ccncc1 (stereo not drawn) | 19.3% |
| CCOC(=O)c1ccc(NC(=O)C2C3C=CC(C3)C2C(=O)O)cc1 (stereo not drawn) | 4.67% |
| CCOc1ccc(NS(=O)(=O)c2ccc(-c3ccc(=O)[nH]n3)o2)cc1 | 13.1% |
| CC(=O)Nc1ccc(C(=O)Nc2ccc(S(=O)(=O)N3CCCC3)cc2)cc1 | 11.8% |
| CCn1c(SCC(=O)N2CCOCC2)nc(O)cc1=O | 14.2% |
| Cc1nc2cc(-c3ccccc3)nn2c(C)c1CCC(=O)NCc1ccco1 | -37.4% |
| S=C(NCc1ccco1)NCc1ccccc1Cl | 19.8% |
| NC(=S)N/N=C/c1coc2ccc(Cl)cc2c1=O | 8.1% |

Source: PMC4336329 (PLoS ONE, 2015)
